Key:
[1] = biological target: T1, TR4 (mouse, UniProt P49117 1-596); test: co-IP from untransfected MEL nuclear extract, IP with anti-TR4, immunoblot
T1 construct: Endogenous protein, immunoprecipitated or detected with a rabbit polyclonal antibody; also called NR2C2
T1 sequence (looked up): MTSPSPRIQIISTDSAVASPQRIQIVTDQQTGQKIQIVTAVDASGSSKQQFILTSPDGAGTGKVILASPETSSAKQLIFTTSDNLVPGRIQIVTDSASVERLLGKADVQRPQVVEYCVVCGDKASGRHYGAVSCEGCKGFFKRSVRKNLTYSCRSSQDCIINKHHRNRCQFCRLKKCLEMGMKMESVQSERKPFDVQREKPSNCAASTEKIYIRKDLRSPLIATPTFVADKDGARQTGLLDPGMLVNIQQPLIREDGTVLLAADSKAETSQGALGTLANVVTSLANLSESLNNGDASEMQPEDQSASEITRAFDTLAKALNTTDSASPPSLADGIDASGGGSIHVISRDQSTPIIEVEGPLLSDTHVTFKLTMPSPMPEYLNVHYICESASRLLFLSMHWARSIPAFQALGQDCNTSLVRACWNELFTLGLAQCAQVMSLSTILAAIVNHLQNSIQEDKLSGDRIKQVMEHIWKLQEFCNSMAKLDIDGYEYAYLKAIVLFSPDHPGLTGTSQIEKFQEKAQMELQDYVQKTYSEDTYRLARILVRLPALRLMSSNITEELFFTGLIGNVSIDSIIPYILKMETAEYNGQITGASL

[2] = biological target: T2, TR2 (mouse, UniProt Q505F1 1-590); test: co-IP from untransfected MEL nuclear extract, IP with anti-TR2, immunoblot
T2 construct: Endogenous protein, immunoprecipitated or detected with a rabbit polyclonal antibody; also called NR2C1
T2 sequence (looked up): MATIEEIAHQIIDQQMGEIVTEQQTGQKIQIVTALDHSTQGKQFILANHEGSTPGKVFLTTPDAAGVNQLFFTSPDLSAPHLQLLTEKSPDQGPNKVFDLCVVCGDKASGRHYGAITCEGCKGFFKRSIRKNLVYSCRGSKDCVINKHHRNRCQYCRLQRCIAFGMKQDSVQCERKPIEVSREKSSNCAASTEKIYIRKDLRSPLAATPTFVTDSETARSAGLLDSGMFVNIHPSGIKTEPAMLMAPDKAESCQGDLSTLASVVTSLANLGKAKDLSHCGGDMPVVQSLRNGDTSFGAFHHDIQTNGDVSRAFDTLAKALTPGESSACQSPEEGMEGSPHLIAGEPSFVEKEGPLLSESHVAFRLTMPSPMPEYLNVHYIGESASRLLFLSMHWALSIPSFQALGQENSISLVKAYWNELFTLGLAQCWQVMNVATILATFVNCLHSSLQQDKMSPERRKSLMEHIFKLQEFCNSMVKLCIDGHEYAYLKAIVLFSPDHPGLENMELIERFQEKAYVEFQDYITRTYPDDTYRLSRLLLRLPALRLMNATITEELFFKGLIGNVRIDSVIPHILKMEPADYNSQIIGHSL

[3] = biological target: T3, biotin-FLAG-tagged TR2 and TR4 (biotin-FLAG-TR2 and biotin-FLAG-TR4 co-expressed in BirA-expressing MEL cells) (UniProt Q505F1 1-590; P49117 1-596, biotinylated on the N-terminal biotinylation tag by BirA biotin ligase); test: streptavidin pull-down of biotin-tagged TR2/TR4 from MEL nuclear extract, mass spectrometry and immunoblot
T3 construct: Both tagged proteins were expressed together and captured together on streptavidin beads, so a co-purified protein cannot be assigned to TR2 or TR4 alone; Associations are from nuclear extracts and may be indirect; also called biotin-tagged TR2 and TR4; biotinylated TR2/TR4; not shown: 23-amino acid biotinylation tag (de Boer et al., 2003); FLAG tag
T3 sequence (looked up) 1: T2 sequence (looked up)
T3 sequence (looked up) 2: T1 sequence (looked up)

binding result [1]: no binding
binding result [2]: no binding
binding result [3]: no binding
B1: MBD2 (other, mouse)
chain: MRAHPGGGRCCPEQEEGESAAGGSGAGGDSAIEQGGQGSALAPSPVSGVRREGARGGGRGRGRWKQAARGGGVCGRGRGRGRGRGRGRGRGRGRGRPQSGGSGLGGDGGGGAGGCGGGSGGGVAPRRDPVPFPSGSSGPGPRGPRATES[about 60 residues omitted]SKLQKNKQRLRNDPLNQNKGKPDLNTTLPIRQTASIFKQPVTKFTNHPSNKVKSDPQRMNEQPRQLFWEKRLQGLSASDVTEQIIKTMELPKGLQGVGPGSNDETLLSAVASALHTSSAPITGQVSAAVEKNPAVWLNTSQPLCKAFIVTDEDIRKQEERVQQVRKKLEEALMADILSRAADTEEVDIDMDSGDEA

— patent US20130059806A1 (REGENTS OF THE UNIVERSITY OF MICHIGAN, published 2013)
